Assay results taken from PMC4336329 (PLoS ONE, 2015).
About 14,000 (4.5%) of roughly 310,000 compounds showed an effect of 50% or more. The effect is printed as a negative number. Some of the results follow.

Target: human ether-à-go-go-related gene (hERG) potassium channel (human, UniProt Q12809)
Experiment: primary screen, population patch clamp on CHO cells stably expressing hERG
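Also: peak tail current of the secondary pulse compared with the same well before compound.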

human ether-à-go-go-related gene (hERG) potassium channel, sequence (Q12809 whole entry, looked up): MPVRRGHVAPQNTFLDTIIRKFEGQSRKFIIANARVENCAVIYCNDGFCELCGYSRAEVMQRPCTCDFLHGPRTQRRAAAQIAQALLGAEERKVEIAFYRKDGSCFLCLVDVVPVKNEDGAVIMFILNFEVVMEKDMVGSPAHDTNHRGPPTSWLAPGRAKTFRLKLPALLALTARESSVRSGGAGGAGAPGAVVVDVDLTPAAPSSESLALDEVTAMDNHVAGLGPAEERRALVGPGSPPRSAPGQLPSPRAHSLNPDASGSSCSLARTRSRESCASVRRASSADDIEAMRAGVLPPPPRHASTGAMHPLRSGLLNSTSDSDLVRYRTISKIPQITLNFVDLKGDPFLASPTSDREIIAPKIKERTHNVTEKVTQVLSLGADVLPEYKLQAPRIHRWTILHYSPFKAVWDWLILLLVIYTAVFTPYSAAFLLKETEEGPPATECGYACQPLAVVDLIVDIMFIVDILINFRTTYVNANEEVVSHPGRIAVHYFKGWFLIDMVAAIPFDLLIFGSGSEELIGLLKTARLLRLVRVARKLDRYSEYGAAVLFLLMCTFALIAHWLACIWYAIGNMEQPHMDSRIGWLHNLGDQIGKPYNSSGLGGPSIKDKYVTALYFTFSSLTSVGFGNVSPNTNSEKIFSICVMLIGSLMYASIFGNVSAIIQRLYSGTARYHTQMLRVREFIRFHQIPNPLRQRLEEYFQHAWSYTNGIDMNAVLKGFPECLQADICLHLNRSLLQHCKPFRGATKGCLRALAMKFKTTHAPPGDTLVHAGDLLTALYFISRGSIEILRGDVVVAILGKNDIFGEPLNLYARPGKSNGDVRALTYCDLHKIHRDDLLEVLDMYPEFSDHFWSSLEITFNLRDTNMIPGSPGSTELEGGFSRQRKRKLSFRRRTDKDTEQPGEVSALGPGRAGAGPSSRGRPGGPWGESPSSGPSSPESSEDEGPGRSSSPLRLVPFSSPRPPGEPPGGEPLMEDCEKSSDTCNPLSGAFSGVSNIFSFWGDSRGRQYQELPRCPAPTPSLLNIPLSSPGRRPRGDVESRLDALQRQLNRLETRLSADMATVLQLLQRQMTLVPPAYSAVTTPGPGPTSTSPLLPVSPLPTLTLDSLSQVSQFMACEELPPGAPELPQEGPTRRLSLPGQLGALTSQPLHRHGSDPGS

| Compound | hERG current change (%, negative = inhibition) at 10uM |
| --- | --- |
| CC(=O)c1c(C)cc(C)c(CSc2ccccn2)c1C | 17.2% |
| CC(C)OC(=O)Cn1nc(C(F)(F)F)c2c1CCCC2 | 9.23% |
| COc1ccc(C)cc1NC(=O)CNc1ccccc1CN(C)C1CCCCC1 | -19.6% |
| CCCNC(=O)C1CC(c2ccc(C(F)(F)F)cc2)=NO1 (centres unmarked) | -23.8% |
| Cl.Clc1cccc(CSC2=NCCCN2)c1 | -0.133% |
| CN(C(=O)CSc1nc(-c2ccccc2)cs1)C1CCS(=O)(=O)C1 (centres unmarked) | -19.6% |
| Cc1ccc(-c2nnc(N(C)C(=O)c3ccccn3)s2)cn1 | 8.47% |
| Cc1ccc(NC(=O)CCC(=O)NNS(=O)(=O)c2ccc(Cl)cc2)cc1C | 1.62% |
| Fc1ccc(-c2nc3nc4ccccc4nc3n2Cc2ccco2)cc1 | -43.2% |
| COc1ccccc1NC(=O)C(O)C(O)C(=O)Nc1ccccc1OC (centres unmarked) | 10.9% |
| Cc1cccc(OCCSc2nc3ccccc3n2CC(=O)O)c1 | 10.8% |
| COc1ccccc1NC(=O)Cc1noc(CSc2nnc(N)s2)n1 | 12.6% |
| Cc1ccc(N2CC(C(=O)Nc3cccc(F)c3)CC2=O)cc1 (centres unmarked) | -6.24% |
| Cc1cccc(N2CC(O)=C(c3nc4ccccc4n3C)C2=N)c1 | -24% |
| Cc1csc(NC(=O)CCS(=O)(=O)c2ccc(Br)cc2)n1 | -4.86% |
| CCCCC(=O)NNC(=S)NC(=O)c1cccc([N+](=O)[O-])c1 | 9.64% |
| COc1ccc(/C=N/NC(=O)CCn2cnc3ccccc32)cc1 | 1.5% |
| CCCCNC(=O)C1CCCN(S(=O)(=O)c2ccc(-n3cnnn3)cc2)C1 (centres unmarked) | -24.8% |
| CCCCCc1cc(=O)oc2c(C(CCN3CCN(c4ccccc4)CC3)c3ccc4c(c3)OCO4)c(OC)cc(OC)c12 (centres unmarked) | 18.7% |
| COc1cccc(NCc2cc(=O)oc3cc(-c4ccccc4)c(O)cc23)c1 | 12.6% |
| Cc1ccc(CNc2ccc3c(c2)OCO3)cc1 | -4.29% |
| O=C(c1ccc2c(c1)OCO2)N1CCNc2ccccc2C1 | 4.12% |
| O=C(c1ccc(F)cc1)n1c(NCc2ccccc2)n[nH]c1=S | 4.14% |
| COC(=O)c1cc(Cl)c(NC(=O)Cc2ccccc2)cc1OC | -1.89% |
| Cc1cc(N2CCOCC2)ccc1/C=C\[N+](=O)[O-] | -15.6% |
| COc1ccc(N2CCN(S(=O)(=O)c3ccc(-c4cc(C)no4)s3)CC2)cc1 | 16.2% |
